Reference: US20150258059A1, “ANTIMICROBIAL AND RADIOPROTECTIVE COMPOUNDS” (BioDiem, Ltd, priority 2001, published 2015)
Like-named read-outs stand apart in the source and are kept apart here.

How the values were obtained:
Format in all cases: cell-based
Rhizomucor pusillus = experiment: M38-P microdilution MIC/MFC; details: Table 16, 48 h, 35° C.
A. Flavus = experiment: M38-P microdilution MIC/MFC; details: Table 16, 48 h, 35° C.
[1] = test system: Enterococcus faecalis ATCC 29212; experiment: NCCLS broth microdilution MIC/MBC; details: Table 17, 2 or 3 replicates
Escherichia coli = experiment: Effect of solvent on MIC, microdilution
Description: (§1) The effect of formulation in DMSO and ethanol on the MIC of Compound (1) was compared for Candida albicans, Salmonella Typhimurium and Escherichia coli using both the macrodilution and microdilution tests.
(§2) Stock solutions in ethanol were allowed to stand for 48 h before use to improve solubility. Compound (1) is not as soluble in ethanol as in DMSO. The concentration of ethanol and DMSO was kept constant at 2% and compared to a decreasing concentration of solvent on normal dilution of the stock solution. There was no difference between the two test methods. There was no difference in MIC between constant and decreasing levels of DMSO.

Candida albicans = experiment: Effect of solvent on MIC, microdilution
Description: as §1, §2

Salmonella typhimurium = experiment: Effect of solvent on MIC, microdilution
Description: as §1, §2

[2] = test system: Neisseria gonorrhoeae WHO Strain VII; experiment: NCCLS broth microdilution MIC/MBC
Streptococcus pyogenes = experiment: NCCLS broth microdilution MIC/MBC; details: Table 17, 2 or 3 replicates, RMIT strain
A. calcoaceticus = experiment: Antibacterial activity in the presence of blood, macrodilution
C. tropicalis RMIT 181 = experiment: M38-P microdilution MIC/MFC; details: 35° C.
[3] = test system: Moraxella catarrhalis RMIT; experiment: NCCLS broth microdilution MIC/MBC; details: Table 17, 2 or 3 replicates
Fonsecaea pedrosoi = experiment: M38-P microdilution MIC/MFC
Enterobacter aerogenes = experiment: NCCLS broth microdilution MIC/MBC; details: Table 17, 2 or 3 replicates
[4] = Table 19, 24 H, 35° C., O2-MICRO METHOD

C/C(=C\c1ccc2c(c1)OCO2)[N+](=O)[O-] [Compound (1)]
>512 µg/mL: MBC (Salmonella typhimurium; EtOH (2%))
128 µg/mL: MIC (Escherichia coli; EtOH (2%)) | MMC (A. calcoaceticus; 10% plasma)
2 µg/mL: MIC ([2]; Neisseria gonorrhoeae, Table 17, 2 or 3 replicates, read-out: MIC) | MMC ([2]; Table 17, 2 or 3 replicates) | MIC [2, 4] | MMC [2, 4] | MIC (Fonsecaea pedrosoi; Fonsecaea pedrosoi) | MMC (Fonsecaea pedrosoi; Table 16, M38-P, Dematiaceous fungi)
32 µg/mL: MMC (A. Flavus) | MIC ([1]; Enterococcus faecalis, ATCC29212) | MMC [1] | MIC ([3]; Moraxella catarrhalis) | MMC [3]
4 µg/mL: MIC (Rhizomucor pusillus; Rhizomucor pusillus) | MIC (C. tropicalis RMIT 181; Candida tropicalis, RMIT181, Table 16, 24 h) | MMC (C. tropicalis RMIT 181; Table 16, 24 h)
8 µg/mL: MMC (Rhizomucor pusillus) | MIC (Candida albicans; Candida albicans, DMSO, read-out: MIC) | MIC (Candida albicans; EtOH (2%))
16 µg/mL: MIC (A. Flavus; Aspergillus flavus) | MBC (Candida albicans; Candida albicans, DMSO, read-out: MBC) | MBC (Candida albicans; EtOH (2%)) | MIC (Streptococcus pyogenes; Streptococcus pyogenes) | MMC (Streptococcus pyogenes)
64 µg/mL: MIC (A. calcoaceticus; Acinetobacter calcoaceticus, 5% blood, read-out: MIC)
512 µg/mL: MIC (Escherichia coli; DMSO) | MIC (Salmonella typhimurium; EtOH (2%)) | MIC (Salmonella typhimurium; Salmonella enterica, TYPHIMURIUM, DMSO, read-out: MIC) | MIC (Enterobacter aerogenes; Klebsiella aerogenes) | MMC (Enterobacter aerogenes)
256 µg/mL: MBC (Escherichia coli; EtOH (2%)) | MMC (A. calcoaceticus; 5% blood)
> 512 µg/mL: MBC (Escherichia coli; DMSO) | MBC (Salmonella typhimurium; Salmonella enterica, TYPHIMURIUM, DMSO, read-out: MBC)
